In all, about 360,000 compounds went through this assay and about 7,500 (2.1%) were called active. The shares of active, inactive and inconclusive entries below differ from those in the screen. Calls come from the whole dose curve; as a rule, active = well fitted cell-killing curve with a large enough effect; inconclusive = small, poorly fitted or top-dose-only effect, or effect the other way, or another doubt; inactive = no such curve, though single readings can be large or run the other way. Potencies of inconclusive entries are left out as doubtful fits.
Experiment: qHTS for induction of synthetic lethality in tumor cells producing 2HG: qHTS for the HT-1080-IDH1KD cell line;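 for activity, negative = toxicity: 0% = DMSO wells and -100% = cell-free medium wells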
Details: HT-1080 IDH1 knockdown viability, ATP luminescence, 48 h; activity, negative = toxicity: at 46.1 µM (top of the series) unless noted
Method in brief: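 HT-1080-IDH1KD cells (IDH1 knocked down), 750/well in RPMI with 5% FBS, treated with compound 48 h at 37 degrees C. Viability by CellTiter-Glo luminescence, normalised to DMSO and no-cell wells; concentration-response curves classed.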
Potency is the fitted concentration of half-maximal effect; tags give direction and shape of the fitted curve.

Q: Which Potency does the source give for Cc1ccc(S(=O)(=O)NC2c3cccc4cccc(c34)C2Sc2n[nH]c(N)n2)cc1 (stereo unspecified) here?
A: Its Potency is inconclusive [cytotoxic, single point].

Q: With C/C(=N\NC(=O)CN(c1ccccc1)S(C)(=O)=O)c1ccccc1O as the molecule, how does the Potency read?
A: Its Potency is inconclusive [cytotoxic, single point].

Q: Which Potency does the source give for O=C(CCC1CCCC1)Nc1ccc(C(=O)NCc2cccnc2)cc1 here?
A: Its Potency is active: 6.51 µM.

Q: Which Potency does the source give for CC(=O)c1sc(NC(=O)CCS(=O)(=O)c2ccccc2)nc1C here?
A: Its Potency is inconclusive [cytotoxic, single point].

Q: Which Potency does the source give for O=c1[nH]c2ccc(S(=O)(=O)N3CCC(Cc4ccccc4)CC3)cc2o1 here?
A: Its Potency is inconclusive [cytotoxic, single point].

Q: For COc1cc(Cn2c3ccc(NC(=O)CCc4ccc(O)cc4)cc3c(=O)n2C)ccc1F, which Potency is on record?
A: Its Potency is inconclusive [cytotoxic, full curve].

Q: For CCN(CC)CCCNC(=O)c1cc2c(-c3cccc(OC)c3)nn(C)c2s1, which Potency is on record?
A: The Potency was inconclusive [cytotoxic, single point].

Q: With CCC(Sc1nc2n[nH]c(C)c2c(=N)n1-c1cc(Cl)ccc1C)C(=O)N1CCOCC1 (stereo unspecified) as the molecule, how does the Potency read?
A: The Potency was inconclusive [cytotoxic, single point].

Q: With COc1cc(Cl)c(C)cc1NC(=O)CSc1sc2c(O)cc(=O)[nH]c2c1C#N as the molecule, how does the Potency read?
A: Its Potency is “inactive”.

Q: For O=C(/C=C/c1cccc([N+](=O)[O-])c1)Nc1cccc(NC(=O)c2cccs2)c1, which Potency is on record?
A: Its Potency is “inactive”.

Q: Which Potency does the source give for CCOC(=O)C(C(=O)OCC)C(Nc1cccc(Br)c1)c1ccccc1 (stereo unspecified) here?
A: The Potency was inconclusive [cytotoxic, single point].

Q: For Cc1nnsc1C(=O)N/N=C/c1cccc(C(F)(F)F)c1, which Potency is on record?
A: Its Potency is inconclusive [rising, partial curve].

Q: For O=C(Oc1cccc2cccnc12)c1ccc2c(c1)OCCO2, which Potency is on record?
A: Its Potency is inconclusive [cytotoxic, single point].

Q: With O=C(Cc1ccccc1)Nc1cccc(N2C(=O)C=CC2=O)c1 as the molecule, how does the Potency read?
A: Its Potency is inconclusive [cytotoxic, single point].

Q: Which Potency does the source give for COc1ccc([C@@H](C)NC(=O)CCc2nnc(-c3cc(C)on3)o2)cc1 here?
A: The Potency was “inactive”.

Q: With COc1ccc(OC)c(C2=Nn3c(nnc3C3CCCCC3)SC2)c1 as the molecule, how does the Potency read?
A: The Potency was inconclusive [cytotoxic, single point].

Q: Which Potency does the source give for CCOc1cc2[nH]c(=S)n(Cc3ccc(C(=O)NCC(OC)OC)cc3)c(=O)c2cc1OCC here?
A: The Potency was “inactive”.

Q: For Cc1nc2c(OCc3ccc(C(F)(F)F)cc3)cccn2c1N(C)C(=O)CCC1CCCC1, which Potency is on record?
A: The Potency was inconclusive [cytotoxic, single point].

Q: Which Potency does the source give for O=C(N=Nc1c(O)n(Cc2ccccc2)c2ccccc12)c1cc2ccccc2cc1O here?
A: Its Potency is “inactive”.

Q: For CCOC(=O)C1CCCN(S(=O)(=O)c2c(C)[nH]c(C)c2C(=O)N2CCCC2)C1 (stereo unspecified), which Potency is on record?
A: Its Potency is inconclusive [rising, single point].

Q: Which Potency does the source give for CCc1nc2ccc(C(=O)N(C)Cc3ccco3)cn2c1N(C)CCCc1ccccc1 here?
A: The Potency was inconclusive [cytotoxic, single point].

Q: Which Potency does the source give for CC(C)(C)N(Cc1ccc2c(c1)OCO2)C(=O)/C=C\S(=O)c1ccccc1 (stereo unspecified) here?
A: Its Potency is active: 13 µM.

Q: With CCCCN(C)C(=O)c1nc2ccccn2c1CN1CCN(C/C=C/c2ccccc2)CC1 as the molecule, how does the Potency read?
A: Its Potency is “inactive”.

Q: Which activity, negative = toxicity does the source give for COc1ccc(Cl)cc1NC(=O)C(C)N(C)Cc1ccc(C(F)(F)F)cc1 (stereo unspecified) here?
A: Its activity, negative = toxicity is inconclusive: -32% [cytotoxic].

Q: With COC(=O)NCc1cc2cc(Cl)ccc2[nH]1 as the molecule, how does the Potency read?
A: The Potency was inconclusive [cytotoxic, single point].

Q: With COc1ccccc1OCC(=O)Nc1ccc(S(=O)(=O)N2CCCC2)cc1 as the molecule, how does the Potency read?
A: Its Potency is “inactive”.

Q: For COc1cc(CN(C)CCc2ccccc2)ccc1OCc1ccccc1, which Potency is on record?
A: The Potency was inconclusive [cytotoxic, single point].

Q: With COc1cccc(CNc2nc3cc(-c4ccc(OC)cc4C)sc3c(=O)n2C)c1 as the molecule, how does the Potency read?
A: Its Potency is inconclusive [cytotoxic, partial curve, poor fit].

Q: With Clc1ccccc1C1CC(c2ccccc2)=Nc2ccccc2N1 (stereo unspecified) as the molecule, how does the Potency read?
A: The Potency was inconclusive [cytotoxic, single point].

Q: For COC(=O)Cc1ccc(NC(=O)C(c2ccccc2)c2ccccc2)cc1, which Potency is on record?
A: Its Potency is “inactive”.

Q: For CC1(c2ccccc2)NC(=O)N(Cc2ccc([N+](=O)[O-])cc2)C1=O (stereo unspecified), which Potency is on record?
A: Its Potency is “inactive”.

Q: Which Potency does the source give for Cc1ccc(S(=O)(=O)N(C)C[C@H]2Oc3ccc(NC(=O)C4CCCCC4)cc3C(=O)N([C@H](C)CO)C[C@H]2C)cc1 here?
A: The Potency was inconclusive [cytotoxic, single point].

Q: With COc1ccc(N2C(=O)C(CN3CCCCC3)C2c2ccccc2)cc1 (stereo unspecified) as the molecule, how does the Potency read?
A: Its Potency is “inactive”.

Q: With CCN(CCCNC(=O)c1cc2c(-c3cccc(OC)c3)nn(C)c2s1)Cc1ccccc1 as the molecule, how does the Potency read?
A: Its Potency is inconclusive [cytotoxic, single point].

Q: With CCC(=NN=C(CC)c1ccccc1O)c1ccccc1O as the molecule, how does the activity, negative = toxicity read?
A: Its activity, negative = toxicity is inconclusive: 30.2%.

Q: Which Potency does the source give for COc1ccc(C(=O)C(OC(=O)c2ccccc2)c2ccccc2)cc1 (stereo unspecified) here?
A: Its Potency is “inactive”.

Q: For CC(=O)NC1=C(Nc2ccc(N(C)C)cc2)C(=O)c2ccccc2C1=O, which Potency is on record?
A: Its Potency is active: 13 µM.

Q: With COc1ccc(NCC(O)COc2ccc(C(C)(C)C)cc2)cc1 (stereo unspecified) as the molecule, how does the Potency read?
A: Its Potency is inconclusive [cytotoxic, single point].

Q: Which activity, negative = toxicity does the source give for O=C(Nc1ccc(F)c(F)c1)c1ccc2c(c1)OCO2 here?
A: Its activity, negative = toxicity is inconclusive: 20.2%.

Q: For COc1ccc(Cl)cc1NC(=O)CN(C)C(=O)C1CCN(C(=O)Nc2ccccc2)CC1, which Potency is on record?
A: Its Potency is “inactive”.

Q: With CC(C)[C@H](NS(=O)(=O)c1ccccc1)C(=O)OCC(=O)N1N=C(c2ccc(Cl)cc2)CC1c1ccco1 (stereo partly specified) as the molecule, how does the Potency read?
A: The Potency was inconclusive [cytotoxic, single point].

Q: With O=C(NCc1cccs1)C1Cc2c(-c3ccc(Cl)cc3)ccnc2O1 (stereo unspecified) as the molecule, how does the Potency read?
A: Its Potency is active: 2.06 µM.

Q: For COc1cccc(OC)c1OCCCCN1CCC(Cc2ccccc2)CC1, which Potency is on record?
A: The Potency was inconclusive [cytotoxic, partial curve].

Q: Which Potency does the source give for COc1cccc(-n2nc(C#N)c(Cl)cc2=O)c1 here?
A: The Potency was active: 14.6 µM.

Q: Which Potency does the source give for Cc1c(C(=O)N2CCCCC2C)sc2ncnc(N3CCc4ccccc4C3)c12 (stereo unspecified) here?
A: The Potency was “inactive”.

Q: Which Potency does the source give for CCCCn1c(N)c(N(CCC(C)C)C(=O)CCCc2nc3ccccc3s2)c(=O)[nH]c1=O here?
A: Its Potency is “inactive”.

Reference: PubChem BioAssay AID686971 (National Center for Advancing Translational Sciences (NCATS), 2013)
